Measured values reported in patent publication US12435061B2 (priority 2020, dated 2025).

Assays:
[1] = tested on: HI 3D model (CRISPR-Cas9 ABCA12 KO skin equivalent); experiment: Organotypic 3D skin culture of Harlequin Ichthyosis (CRISPR-Cas9 ABCA12 KO equivalent)
[2] = tested on: cultured human keratinocytes (nHEK cells); experiment: Protein markers of differentiation (involucrin, filaggrin Western Blot) in cultured human keratinocytes; conditions: higher concentration of KM-001 (1000 nM), 24 h
in vivo = conditions: male, CD-1, mouse, po

## O=C(c1ccc(F)cn1)N1CCC(c2ccc(-c3ccccc3C3CC3)cc2CO)C1 (centres unmarked) [KM-001]
[1]; HI 3D model, various KM-001 concentrations
  Keratin 10 expression (IF staining): normalized Keratin 10 expression in a dose dependent manner
[1]; HI 3D skin
  Involucrin and Transglutaminase expression: normalizes Involucrin and Transglutaminase expression dose dependently
[1]; normal 3D skin culture
  structure and function of normal skin: doesn't change structure and function of normal skin
[2]
  filaggrin protein expression (Western Blot): does not affect the proteins levels
  involucrin protein expression (Western Blot): does not affect the proteins levels
In vivo; 3 mg/kg
  concentration at 90 min: 19.1 ± 5.8 ng/mL
In vivo; 10 mg/kg
  concentration at 90 min: 56.9 ± 12.8 ng/mL
In vivo; 30 mg/kg
  concentration at 90 min: 180 ± 35 ng/mL
